# From PMC4336329 (PLoS ONE, 2015)
# Out of some 310,000 compounds screened, about 14,000 (4.5%) showed an effect of 50% or more. Effects have a minus sign here. This is one part of the list. Where a SMILES comes first, the peptide text is derived from it. [ ]: non-standard residue; d: D form. The star is where a group is joined. Tic = O=C(O)[C@@H]1Cc2ccccc2CN1; Boc = CC(C)(C)OC(=O)*
# Biological target: human ether-à-go-go-related gene (hERG) potassium channel (human, UniProt Q12809)
# Assay: primary screen, population patch clamp on CHO cells stably expressing hERG
# 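Also: peak tail current of the secondary pulse compared with the same well before compound.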
# Sequence of human ether-à-go-go-related gene (hERG) potassium channel (Q12809 whole entry, looked up): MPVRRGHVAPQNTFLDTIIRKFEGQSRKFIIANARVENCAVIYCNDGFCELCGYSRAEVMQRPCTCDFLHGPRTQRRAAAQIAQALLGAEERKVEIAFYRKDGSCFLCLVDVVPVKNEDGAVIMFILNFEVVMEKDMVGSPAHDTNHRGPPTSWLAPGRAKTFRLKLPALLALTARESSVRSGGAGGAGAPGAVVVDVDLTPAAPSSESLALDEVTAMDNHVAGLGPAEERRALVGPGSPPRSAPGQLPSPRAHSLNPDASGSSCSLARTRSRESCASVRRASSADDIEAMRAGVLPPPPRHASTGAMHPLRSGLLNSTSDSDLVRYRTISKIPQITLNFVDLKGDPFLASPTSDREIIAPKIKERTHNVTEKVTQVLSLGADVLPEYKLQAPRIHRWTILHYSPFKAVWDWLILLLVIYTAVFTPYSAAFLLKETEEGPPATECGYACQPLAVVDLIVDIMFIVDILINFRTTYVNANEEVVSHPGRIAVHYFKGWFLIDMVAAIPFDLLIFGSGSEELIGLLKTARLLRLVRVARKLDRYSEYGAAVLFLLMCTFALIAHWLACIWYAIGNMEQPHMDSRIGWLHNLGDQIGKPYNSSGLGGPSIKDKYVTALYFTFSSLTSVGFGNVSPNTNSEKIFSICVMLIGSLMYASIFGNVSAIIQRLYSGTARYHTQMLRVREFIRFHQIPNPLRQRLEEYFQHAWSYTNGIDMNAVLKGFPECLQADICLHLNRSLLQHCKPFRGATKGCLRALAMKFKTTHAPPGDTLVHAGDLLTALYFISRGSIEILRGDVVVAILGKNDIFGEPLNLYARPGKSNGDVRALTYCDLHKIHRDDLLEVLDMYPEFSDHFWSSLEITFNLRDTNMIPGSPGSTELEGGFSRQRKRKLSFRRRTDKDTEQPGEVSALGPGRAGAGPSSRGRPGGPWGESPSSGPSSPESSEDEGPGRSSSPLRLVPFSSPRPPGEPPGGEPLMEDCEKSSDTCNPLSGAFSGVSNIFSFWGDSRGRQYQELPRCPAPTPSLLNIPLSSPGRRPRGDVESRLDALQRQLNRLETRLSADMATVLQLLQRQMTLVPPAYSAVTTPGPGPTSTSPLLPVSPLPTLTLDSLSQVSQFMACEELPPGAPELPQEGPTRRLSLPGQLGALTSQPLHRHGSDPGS
row,Structure (SMILES),"hERG current change (%, negative = inhibition) at 10uM [%]"
1,COc1cccc(N/C(SCc2ccccc2C)=C(/C#N)C(=O)NCc2cccs2)c1,13.6
2,COc1ccc(CN2CCN(c3ccccn3)CC2)c(OC)c1,-75.9
3,COc1ccc(C(=O)C(C)Oc2cccc(NC(=O)c3cccc([N+](=O)[O-])c3)c2)cc1 (stereo not drawn),2.74
4,CCC(C)NC(=O)CN(c1cc(C)cc(C)c1)S(=O)(=O)c1c(C)[nH]c(=O)[nH]c1=O (stereo not drawn),-4.18
5,COc1ccc(CNC(=O)CNC(=O)c2c(C)nn(C)c2Cl)cc1,20.4
6,COCCn1c(SCC(=O)N2CC(=O)Nc3ccccc32)nnc1-c1ccoc1C,5.11
7,COC(=O)c1nnn(CC(=O)NC(=O)Nc2cccc(C)c2C)c1C(=O)OC,3.38
8,CC(=O)NC1C(=O)N(CCN2CCOCC2)c2ccc(Br)cc21.Cl (stereo not drawn),5.73
9,CCS(=O)(=O)n1nc(-c2ccccc2)nc1N,10
10,COc1ccc(-n2c(COc3ccc4c(c3)OCO4)nnc2SCC(=O)O)cc1,8.69
11,Fc1ccc2c(c1)/C(=N/Nc1ccccn1)CCS2,8.25
12,CN(C)CCNC(=O)c1[nH]nc2c1CCc1ccccc1-2,-13.9
13,CC(=O)OC1CSc2nc3ccccc3n2C1 (stereo not drawn),-10.1
14,Cc1cccc(NC(=O)CC2c3ccccc3Oc3ccccc32)c1,18
15,COc1ccc(-c2cc(=O)c3ccccc3n2C)cc1,-7.23
16,COc1ccc(Nc2nc(N)nc(CSc3nc(C)cc(C)n3)n2)cc1,17.5
17,O=C(COC(=O)/C=C/c1cccc(Cl)c1)NCCc1ccccc1,0.0487
18,CCNC(=O)CN(c1ccc(Br)c(C)c1)S(C)(=O)=O,23.4
19,Cc1cc(C)n(C(=O)c2ccc([N+](=O)[O-])cc2Cl)n1,13.3
20,Cc1ccc(OCCOCCNC(C)(C)C)c([N+](=O)[O-])c1.O=C(O)C(=O)O,0.542
21,CCOc1cc2c(cc1OCC)C(c1ccc(OC)cc1)N(c1ccccc1)C(=O)C2 (stereo not drawn),-57.5
22,COc1ccc(-c2nc3cc(NC(=O)c4ccc5c(c4)OCO5)ccc3o2)cc1,7.07

row,Structure (SMILES),"hERG current change (%, negative = inhibition) at 10uM [%]"
1,Cc1cc(Cl)c2oc(C(=O)N3CCCCC3CCN3CCCC3=O)c(C)c2c1 (stereo not drawn),-12.4
2,CNC(=O)c1c[nH]c2ccc(S(=O)(=O)Nc3cccc(SC)c3)cc2c1=O,18.7
3,Cc1ccc(NC(=O)CCC(=O)OCc2ccc(Br)cc2)cc1,20.6
4,CCN(CC)S(=O)(=O)c1ccc(C(=O)NCc2n[nH]c(=S)n2-c2ccccc2OC)cc1,23.9
5,Oc1cccc(C=Nc2cccc3ccccc23)c1O,27.6
6,C=C(C)C(=O)Nc1cccnc1Oc1ccc(F)cc1,0.293
7,Cc1cccc(NC(=O)c2ccc(S(=O)(=O)N(C)C)cc2)c1,-18.6
8,O=C(CSc1ncnc2[nH]ncc12)Nc1nc(-c2ccc(F)c(F)c2)cs1,44.7
9,O=C(COC(=O)c1ccc(Cl)nc1)NC1CCCCCC1,-5.25
10,COCCCNC(=O)Cn1nnc(-c2ccccc2NC(=O)c2ccccc2F)n1,-26.3
11,Cc1ccc(CN2CCNC(=O)C2CC(=O)N(C)C(C2CC2)C2CC2)o1 (stereo not drawn),11.8
12,CC(C)c1ccc(S(=O)(=O)c2nnn3c2nc(N2CCCCC2)c2ccccc23)cc1,4.98
13,Nc1cnc(CNc2ccccc2Cl)cn1,2.07
14,CCOc1ccc(C(=O)NCc2ccccc2OC)cc1,-12
15,Cc1ccccc1NC(=S)N/N=C1\CC(C)(C)Oc2ccc(O)cc21,42.1
16,O=C(OC(C(=O)O)C(OC(=O)c1ccccc1)C(=O)NCc1ccccc1)c1ccccc1 (stereo not drawn),15.3
17,C=CCn1c(O)c(N=NC(=S)Nc2ccc(OC)cc2)c2ccccc21,5.27
18,COc1ccc(CNC(=O)C2CCN(S(=O)(=O)c3ccc4c(c3)NC(=O)CO4)CC2)cc1,16.7
19,CCc1ccc(-c2nc(CS(=O)CC(=O)NCc3ccco3)c(C)o2)cc1 (stereo not drawn),1.94
20,CN1CCN(C(=O)c2ccccc2-c2nc(-c3ccc(Cl)cc3)no2)CC1,-65.6
21,Clc1ccc(C2=CSC3=NCCN23)c(Cl)c1.[Br-],-59.4
22,CCCCNC(=O)CCc1c(C)nc2nc(-c3cc(OC)cc(OC)c3)nn2c1C,-37.5

row,Structure (SMILES),"hERG current change (%, negative = inhibition) at 10uM [%]"
1,COc1ccc(C2=C(C)C(N3CCN(C(=O)c4ccco4)CC3)=NS2(=O)=O)cc1,-7.37
2,CC(=O)Nc1ccccc1NC(=O)c1ccc(C)cc1C,23.7
3,COc1ccc(CCN(C)c2ccc(S(=O)(=O)N3CCCC3)cn2)cc1OC,16
4,COc1ccc(C(C#N)N2CCC(c3ccccc3)=N2)cc1 (stereo not drawn),8.73
5,Cc1nn(-c2ccccc2)c(C)c1C(=O)OCC(=O)Nc1ccccc1F,4.48
6,O=c1[nH]c(-c2ccccc2F)nc2c1sc(=S)n2Cc1ccccc1,22.6
7,Cc1nn(-c2ccccc2)c(NC(=O)c2cccs2)c(-c2ccccc2Cl)c1=O,3.53
8,CC(C)NC(=O)COC(=O)c1cccc(NS(=O)(=O)/C=C/c2ccccc2)c1,-18
9,O=C(Nc1ccccc1Cl)N(Cc1nc2ccccc2c(=O)[nH]1)Cc1cccs1,-1.42
10,CC(C)(C)OC(=O)N1Cc2ccccc2C[C@H]1C(=O)N1CCC[C@H]1C(=O)O (Boc-[Tic]-Pro-OH),22.8
11,COc1ccccc1NC(=O)Cc1c(F)cccc1Cl,-1.33
12,COc1ccc(C(=O)NCC(=O)N/N=C/c2cn(C)c3ccccc23)cc1OC,6.28
13,Clc1ccc(Oc2nc(N3CCOCC3)nc(N3CCOCC3)n2)c(C2CCCCC2)c1,12.4
14,Cc1nn(-c2ccccc2)c(C)c1C(=O)NNC(=O)C(F)(F)F,9.26
15,OCCCNC(=S)NC1CCCC1,21.8
16,CCOC(=O)C1(CCOc2ccccc2)CCN(CC=C(C)C)CC1,-50.2
17,O=C(NCc1nnc(SCC(=O)N2CCCCC2)o1)c1c(F)cccc1Cl,9.42
18,CC1=C(C(=O)OCCCBr)C(c2ccc3c(c2)OCO3)NC(=O)N1 (stereo not drawn),5.39
19,Cc1ccc(C)n1-c1ccc(C(=O)NN=C2CCCC2)cc1,-12.9
20,Cc1ccc(C(=O)NNC(=O)CSc2nnc(-c3ccccc3)n2Cc2ccccc2)cc1,-29.4
21,Cc1cc(C)n(-c2cccc(CN(C)Cc3nc(-c4cnccn4)no3)c2)n1,10.8
22,Cc1ccc(-c2cc3nc(C)cc(NCc4ccco4)n3n2)cc1,-13.9

row,Structure (SMILES),"hERG current change (%, negative = inhibition) at 10uM [%]"
1,O=C(Cc1ccc(Cl)c(Cl)c1)Nc1ccc2[nH]c(=O)[nH]c2c1,0.185
2,COc1ccc(C2OC(=O)CC2C(=O)NC2CCCCCC2)cc1OC (stereo not drawn),-4.28
3,Cc1ccc(-c2csc(N3CCN(c4cc5c(cc4Cl)nc(-c4ccncc4)n5CCOCCO)CC3)n2)cc1,4.81
4,COc1ccc(N2CCN(S(=O)(=O)c3c(C)nc4sccn4c3=O)CC2)cc1,-9.86
5,CCOC(=O)c1cc2sc(C)cc2n1CC(=O)Nc1cccc(C)c1C,-11.8
6,COc1ccccc1C(=O)Nc1nnc(-c2ccc3c(c2)CCCC3)o1,-2.63
7,O=C(c1ccccc1[N+](=O)[O-])N1CC2C3C=CC(C3)C2C1 (stereo not drawn),17.9
8,Cc1ccc(C)c(-c2csc(-c3cccnc3)n2)c1,-1.84
9,O=C(O)CCCCCN1C(=O)C2CCCCC2C1=O (stereo not drawn),12.7
10,Cc1cc(OC(=O)c2ccccc2Cl)c([N+](=O)[O-])c(=O)[nH]1,6.58
11,CC(C)Sc1sc(C(=O)O)c(-c2ccc(Cl)cc2)c1C#N,13.6
12,O=C(c1cccc(OC2CCN(Cc3ccc(F)cc3Cl)CC2)c1)N1CCCC1,-26.4
13,O=C(Oc1ccc(/C=N/n2cnnc2)cc1)c1cccc([N+](=O)[O-])c1,6.89
14,O=C(Cn1cnc2c(nnn2-c2cccc(Cl)c2)c1=O)NCc1ccccc1,3.6
15,O=C(CSc1ncn[nH]1)Nc1nsc(-c2ccccc2)n1,-4.5
16,Cc1cc(S(=O)(=O)N2CCCOC2CNC(=O)C(=O)NCCCN2CCOCC2)ccc1F (stereo not drawn),10.3
17,COc1ccc(NC(=O)C/C(C)=N/NC(=O)c2cnccn2)c(OC)c1,9.22
18,CN(C)S(=O)(=O)c1ccc(NC(=O)c2cc(-c3cccs3)nc3ccccc23)cc1,8.68
19,Cc1ccc(NC(=O)CCC(=O)N/N=C/c2ccco2)c(C)c1,12.9
20,[O-]/[N+](=C\c1ccc(OC(F)F)cc1)c1ccccc1,-14.3
21,CCOC(=O)c1ccc(NC(=O)NCc2c(C)nn(CC)c2C)cc1,10.9
